The list shows a part of the results. Cut-off read from the data, not from the text of the source: active = 3.2 or more and inactive = the rest. The signal is at background level for most entries.
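Note: displayed peptides selected on beads carrying the immobilized SH2 domain, with library peptides lacking any tyrosine serving as negative controls.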

In the first assay the target is SHP2 C-SH2 domain E139D. Nature of the assay: enrichment score (SH2-bound / input frequency) (ratio); bacterial display of known human phosphotyrosine sites (pTyr-Var adds point mutants) read by sequencing; higher = stronger binding; tyrosines were phosphorylated by kinases first. As to conditions: peptide library: pTyr-Var.
Take KFEDVYVRICL [B3GALNT1_Y269_G271R]: the enrichment score is inactive: 0.772.
On to TAGEPYHDIRF [BAP1_Y223], for which the enrichment score was inactive: 0.633.
Still for that read-out and setting: under NALVQYQEMEK [BBS4_Y395_A393V] stands inactive: 0.598.
As to QMVGMYAFSYM [AVPR2_Y124_S126F], the enrichment score is inactive: 0.82.
Same read-out and setting: the same measure for QLRPGYFPIPV [BAG3_Y93_I94F]: inactive: 1.06; for QMVRMYASSYM [AVPR2_Y124_G122R]: inactive: 0.561.
On to VDSGVYAVPPP [BCAR1_Y410], for which the enrichment score is inactive: 0.63.
For QDIMAYRGREV [BCL6_Y157], the enrichment score is inactive: 0.336.
As to TMKSHYMELYD [BBS2_Y644_R643H], the enrichment score was inactive: 0.885.
Regarding DLEKTYNTFRS [B4GALNT2_Y538_A533D_YF], the enrichment score was inactive: 0.86.
On to HFMELYDLNRD [BBS2_Y648_R643H_YF], for which the enrichment score was inactive: 1.74.
For the molecule LIHLHYIRKDY [BBS4_Y43], the enrichment score is active: 3.72.
The same measure, in the same setting: the same measure for HPFHVYPQPGM [BAG3_Y114]: inactive: 1.84; for QMVDMYASSFM [AVPR2_Y124_G122D_YF]: inactive: 0.872.
Consider NRLTDYFEPLL [BBS10_Y536_YF], for which the enrichment score is inactive: 0.998.
Take QMVRMYASSFM [AVPR2_Y124_G122R_YF]: the enrichment score is inactive: 0.479.
Same read-out and setting: under REEKNYKHKET [BCLAF1_Y459_L461H] stands inactive: 0.986; under QMVGMYASSYM [AVPR2_Y124], inactive: 0.687.
Consider LIHLHYIRRDY [BBS4_Y43_K46R], for which the enrichment score was inactive: 1.25.

For another assay, the target named is SHP2 C-SH2 domain wild-type. The description is as above. The following applies: peptide library: pTyr-Var.
In the case of KFEDVYVRICL [B3GALNT1_Y269_G271R], the enrichment score is inactive: 1.16.
On the same count and under the same terms, under TAGEPYHDIRF [BAP1_Y223] stands inactive: 0.75; under NALVQYQEMEK [BBS4_Y395_A393V], inactive: 0.813.
Consider QMVGMYAFSYM [AVPR2_Y124_S126F], for which the enrichment score is inactive: 0.845.
Regarding QLRPGYFPIPV [BAG3_Y93_I94F], the enrichment score is inactive: 0.947.
Still for that read-out and setting: under QMVRMYASSYM [AVPR2_Y124_G122R] stands inactive: 0.506; under VDSGVYAVPPP [BCAR1_Y410], inactive: 0.534; under QDIMAYRGREV [BCL6_Y157], inactive: 0.562.
Regarding TMKSHYMELYD [BBS2_Y644_R643H], the enrichment score is inactive: 1.37.
Turning to DLEKTYNTFRS [B4GALNT2_Y538_A533D_YF], the enrichment score is inactive: 1.08.
Consider HFMELYDLNRD [BBS2_Y648_R643H_YF], for which the enrichment score was inactive: 2.08.
For LIHLHYIRKDY [BBS4_Y43], the enrichment score is active: 3.31.
As to HPFHVYPQPGM [BAG3_Y114], the enrichment score is inactive: 1.43.
Consider QMVDMYASSFM [AVPR2_Y124_G122D_YF], for which the enrichment score was inactive: 0.753.
Regarding NRLTDYFEPLL [BBS10_Y536_YF], the enrichment score is inactive: 1.
On the same count and under the same terms, under QMVRMYASSFM [AVPR2_Y124_G122R_YF] stands inactive: 0.583; under REEKNYKHKET [BCLAF1_Y459_L461H], inactive: 0.891.
With QMVGMYASSYM [AVPR2_Y124], the enrichment score is inactive: 0.816.
As for LIHLHYIRRDY [BBS4_Y43_K46R], the enrichment score is inactive: 0.856.

The target of a further assay is SHP2 N-SH2 domain L43F. The description is as above. The following applies: peptide library: pTyr-Var.
With KFEDVYVRICL [B3GALNT1_Y269_G271R], the enrichment score is inactive: 0.892.
In the case of TAGEPYHDIRF [BAP1_Y223], the enrichment score is inactive: 0.795.
Regarding NALVQYQEMEK [BBS4_Y395_A393V], the enrichment score is inactive: 0.884.
With QMVGMYAFSYM [AVPR2_Y124_S126F], the enrichment score is inactive: 1.03.
Take QLRPGYFPIPV [BAG3_Y93_I94F]: the enrichment score is inactive: 0.939.
As to QMVRMYASSYM [AVPR2_Y124_G122R], the enrichment score was inactive: 0.606.
For the molecule VDSGVYAVPPP [BCAR1_Y410], the enrichment score was inactive: 0.645.
QDIMAYRGREV [BCL6_Y157]: the enrichment score is inactive: 0.618.
As for TMKSHYMELYD [BBS2_Y644_R643H], the enrichment score is inactive: 2.79.
Still for that read-out and setting: under DLEKTYNTFRS [B4GALNT2_Y538_A533D_YF] stands inactive: 1.21; under HFMELYDLNRD [BBS2_Y648_R643H_YF], inactive: 2.65.
On to LIHLHYIRKDY [BBS4_Y43], for which the enrichment score is active: 3.8.
On to HPFHVYPQPGM [BAG3_Y114], for which the enrichment score is inactive: 1.76.
QMVDMYASSFM [AVPR2_Y124_G122D_YF]: the enrichment score is inactive: 1.
Still for that read-out and setting: the same measure for NRLTDYFEPLL [BBS10_Y536_YF]: inactive: 1.08; for QMVRMYASSFM [AVPR2_Y124_G122R_YF]: inactive: 0.642; for REEKNYKHKET [BCLAF1_Y459_L461H]: inactive: 0.738.
The same measure, in the same setting: the same measure for QMVGMYASSYM [AVPR2_Y124]: inactive: 0.96; for LIHLHYIRRDY [BBS4_Y43_K46R]: inactive: 1.04.

Another assay concerns the target SHP2 N-SH2 domain T42A. The assay is described as above. The following applies: peptide library: pTyr-Var.
In the case of KFEDVYVRICL [B3GALNT1_Y269_G271R], the enrichment score was inactive: 0.692.
As to TAGEPYHDIRF [BAP1_Y223], the enrichment score was inactive: 0.842.
Take NALVQYQEMEK [BBS4_Y395_A393V]: the enrichment score was inactive: 1.88.
Still for that read-out and setting: the same measure for QMVGMYAFSYM [AVPR2_Y124_S126F]: inactive: 0.647.
As to QLRPGYFPIPV [BAG3_Y93_I94F], the enrichment score is inactive: 0.886.
As to QMVRMYASSYM [AVPR2_Y124_G122R], the enrichment score was inactive: 0.685.
On the same count and under the same terms, the same measure for VDSGVYAVPPP [BCAR1_Y410]: inactive: 0.47.
On to QDIMAYRGREV [BCL6_Y157], for which the enrichment score was inactive: 0.433.
As to TMKSHYMELYD [BBS2_Y644_R643H], the enrichment score is active: 4.91.
DLEKTYNTFRS [B4GALNT2_Y538_A533D_YF]: the enrichment score was inactive: 1.07.
For the molecule HFMELYDLNRD [BBS2_Y648_R643H_YF], the enrichment score was inactive: 1.39.
Consider LIHLHYIRKDY [BBS4_Y43], for which the enrichment score is inactive: 2.71.
For the molecule HPFHVYPQPGM [BAG3_Y114], the enrichment score is inactive: 1.4.
With QMVDMYASSFM [AVPR2_Y124_G122D_YF], the enrichment score was inactive: 0.966.
On the same count and under the same terms, the same measure for NRLTDYFEPLL [BBS10_Y536_YF]: inactive: 0.965.
As to QMVRMYASSFM [AVPR2_Y124_G122R_YF], the enrichment score is inactive: 0.515.
For REEKNYKHKET [BCLAF1_Y459_L461H], the enrichment score is inactive: 0.907.
On to QMVGMYASSYM [AVPR2_Y124], for which the enrichment score was inactive: 0.724.
LIHLHYIRRDY [BBS4_Y43_K46R]: the enrichment score was inactive: 0.907.

The target of the next assay is SHP2 N-SH2 domain T52S. The assay is described as above. As to conditions: peptide library: pTyr-Var.
As for KFEDVYVRICL [B3GALNT1_Y269_G271R], the enrichment score was inactive: 0.615.
Turning to TAGEPYHDIRF [BAP1_Y223], the enrichment score is inactive: 0.43.
NALVQYQEMEK [BBS4_Y395_A393V]: the enrichment score is inactive: 0.818.
With QMVGMYAFSYM [AVPR2_Y124_S126F], the enrichment score was inactive: 0.659.
Take QLRPGYFPIPV [BAG3_Y93_I94F]: the enrichment score is inactive: 0.948.
As to QMVRMYASSYM [AVPR2_Y124_G122R], the enrichment score was inactive: 0.466.
With VDSGVYAVPPP [BCAR1_Y410], the enrichment score was inactive: 0.712.
On to QDIMAYRGREV [BCL6_Y157], for which the enrichment score was inactive: 0.44.
Same read-out and setting: under TMKSHYMELYD [BBS2_Y644_R643H] stands inactive: 3.01; under DLEKTYNTFRS [B4GALNT2_Y538_A533D_YF], inactive: 1.14; under HFMELYDLNRD [BBS2_Y648_R643H_YF], inactive: 1.93.
For the molecule LIHLHYIRKDY [BBS4_Y43], the enrichment score is active: 3.43.
On to HPFHVYPQPGM [BAG3_Y114], for which the enrichment score was inactive: 1.82.
For QMVDMYASSFM [AVPR2_Y124_G122D_YF], the enrichment score was inactive: 1.06.
Regarding NRLTDYFEPLL [BBS10_Y536_YF], the enrichment score is inactive: 0.948.
With QMVRMYASSFM [AVPR2_Y124_G122R_YF], the enrichment score was inactive: 0.447.
Turning to REEKNYKHKET [BCLAF1_Y459_L461H], the enrichment score is inactive: 0.491.
For the molecule QMVGMYASSYM [AVPR2_Y124], the enrichment score was inactive: 0.892.
Turning to LIHLHYIRRDY [BBS4_Y43_K46R], the enrichment score was inactive: 1.08.

In a further assay the target is SHP2 N-SH2 domain wild-type. Described as above. The following applies: peptide library: pTyr-Var.
Regarding KFEDVYVRICL [B3GALNT1_Y269_G271R], the enrichment score is inactive: 0.947.
Consider TAGEPYHDIRF [BAP1_Y223], for which the enrichment score is inactive: 0.643.
Turning to NALVQYQEMEK [BBS4_Y395_A393V], the enrichment score was inactive: 0.829.
QMVGMYAFSYM [AVPR2_Y124_S126F]: the enrichment score was inactive: 1.22.
Same read-out and setting: under QLRPGYFPIPV [BAG3_Y93_I94F] stands inactive: 0.975; under QMVRMYASSYM [AVPR2_Y124_G122R], inactive: 0.497.
Same read-out and setting: under VDSGVYAVPPP [BCAR1_Y410] stands inactive: 0.747; under QDIMAYRGREV [BCL6_Y157], inactive: 0.439; under TMKSHYMELYD [BBS2_Y644_R643H], inactive: 1.21.
Regarding DLEKTYNTFRS [B4GALNT2_Y538_A533D_YF], the enrichment score was inactive: 1.23.
The same measure, in the same setting: the same measure for HFMELYDLNRD [BBS2_Y648_R643H_YF]: inactive: 2.31; for LIHLHYIRKDY [BBS4_Y43]: inactive: 2.75; for HPFHVYPQPGM [BAG3_Y114]: inactive: 1.76.
The same measure, in the same setting: under QMVDMYASSFM [AVPR2_Y124_G122D_YF] stands inactive: 1.04.
On the same count and under the same terms, under NRLTDYFEPLL [BBS10_Y536_YF] stands inactive: 0.874; under QMVRMYASSFM [AVPR2_Y124_G122R_YF], inactive: 0.605; under REEKNYKHKET [BCLAF1_Y459_L461H], inactive: 0.725.
With QMVGMYASSYM [AVPR2_Y124], the enrichment score was inactive: 0.852.
Consider LIHLHYIRRDY [BBS4_Y43_K46R], for which the enrichment score is inactive: 0.961.

Source of the values: the supplement of paper PMC10369915.
